# Data as given in PubChem BioAssay AID2147 (National Center for Advancing Translational Sciences (NCATS), 2009).
# Screen size: about 230,000 compounds; about 3,600 (1.6%) were called active. Inconclusive results, whose numbers are uncertain, are shown with a selection of clear calls. Calls follow the shape of the dose curve; as a rule, active = well fitted inhibition curve with a large enough effect (not every such curve was filed as active); inconclusive = small, poorly fitted or top-dose-only effect, or another doubt; inactive = no such curve, though single readings can be large or run the other way. Potencies beside an inconclusive call are fits to weak or partial responses and may not hold up.
# Target: Lysine-specific demethylase 4E (Homo sapiens) (UniProt B2RXH2)
# UniProt B2RXH2, sequence (B2RXH2 whole entry, looked up, the tested form may be a part): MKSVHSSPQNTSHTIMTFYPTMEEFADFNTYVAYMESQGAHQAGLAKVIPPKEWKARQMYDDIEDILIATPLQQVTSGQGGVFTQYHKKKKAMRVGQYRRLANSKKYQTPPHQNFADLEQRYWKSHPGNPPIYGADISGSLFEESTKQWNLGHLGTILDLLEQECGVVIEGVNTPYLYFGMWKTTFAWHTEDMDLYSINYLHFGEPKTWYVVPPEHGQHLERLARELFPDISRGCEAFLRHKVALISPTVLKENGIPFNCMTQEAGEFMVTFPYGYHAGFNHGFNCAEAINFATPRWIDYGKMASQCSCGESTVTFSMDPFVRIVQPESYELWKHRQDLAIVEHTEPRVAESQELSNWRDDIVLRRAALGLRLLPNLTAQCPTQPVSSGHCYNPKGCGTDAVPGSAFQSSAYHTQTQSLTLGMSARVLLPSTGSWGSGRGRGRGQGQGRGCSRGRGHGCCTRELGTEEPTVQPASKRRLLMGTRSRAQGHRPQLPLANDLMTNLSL
# Experiment: qHTS Assay for Inhibitors of Human Jumonji Domain Containing 2E (JMJD2E)
# Conditions: JMJD2E catalytic domain, FDH-coupled NADH fluorescence (FDH is formaldehyde dehydrogenase); series mostly up to 57.1 µM; activity change, negative = inhibition: at the top concentration
# Also: nearly all actives have a fitted effect of over 50% in size.
# 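For activity change, negative = inhibition in this document: 0% = wells with enzyme and -100% = buffer wells without enzyme.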
# Potency is read from the fitted curve at half-maximal effect; tags tell the direction and shape of the fitted curve.
SMILES,Potency,"activity change, negative = inhibition"
Cc1cccc(NC(=O)c2nc[nH]c2C(=O)N[C@@H](Cc2ccccc2)C(=O)OCc2ccccc2)c1,"inconclusive: 28.2 µM [inhibitor, single point]",
COc1cc(NC(=O)COC(=O)/C=C/c2ccc(O)c(OC)c2)cc(OC)c1,"inconclusive: 31.6 µM [inhibitor, partial curve]",
CC(Oc1ccc2ccccc2c1)C(=O)NNC(=S)NC(=O)c1ccco1 (stereo unspecified),"inconclusive: 39.8 µM [inhibitor, single point]",
CC(=O)N(\C=C/C=C/C=C1\Sc2ccccc2C1=O)c1ccccc1,active: 14.1 µM,
Cc1sc2nc(-c3ccco3)oc(=O)c2c1C,"inconclusive: 6.31 µM [inhibitor, full curve]",
COc1cccc2cc(/C(=N/O)c3ccccc3)oc12,"inconclusive: 10 µM [inhibitor, partial curve]",
O=C(COn1nnc2ccc(C(F)(F)F)cc21)Nc1nnc(-c2ccccc2)o1,"inconclusive: 39.8 µM [inhibitor, single point]",
S=c1[nH]nc(-c2ccco2)n1-c1ccc(Cl)cc1,"inconclusive: 39.8 µM [inhibitor, single point]",
CCCCC/C=C\C/C=C\CCCCCCCC(=O)NCC(=O)O,,inactive: -4.51%
CNc1nc(C)cc(C)c1S(=O)(=O)c1ccc(Cl)cc1,"inconclusive: 35.5 µM [inhibitor, single point]",
Cc1noc(C)c1S(=O)(=O)Nc1ccc(C(=O)N2CCN(c3cccc(Cl)c3)CC2)cc1,,inactive: -2.07%
CCOC(=O)c1cc(CC)sc1NC(=O)CSc1nc2ccccc2c(=O)n1Cc1ccco1,"inconclusive: 39.8 µM [inhibitor, single point]",
CC(C)COP(=O)(c1ccc(N(C)C)cc1)C(O)c1ccccn1 (stereo unspecified),"inconclusive: 39.8 µM [inhibitor, single point]",
CN1CCc2c(sc3c2C(=O)NC(c2ccc(-c4ccc(Cl)cc4)o2)N3)C1 (stereo unspecified),"inconclusive: 25.1 µM [inhibitor, partial curve]",
COCc1cc(C)n(CC(=O)Nc2cccc(C)c2)c(=O)c1C#N,"inconclusive: 28.2 µM [inhibitor, partial curve]",
O=C(NCc1cccnc1)c1ccccc1CCc1ccccc1,,inactive: -2.2%
CCN(CC)S(=O)(=O)c1cccc(N=Nc2c(O)c3ccccc3oc2=O)c1,,inactive: -9.67%
Cc1ccc(C2Nc3ccccc3C(=O)N2Cc2ccco2)cc1 (stereo unspecified),"inconclusive: 31.6 µM [inhibitor, partial curve]",
O=C(CN1C(=O)S/C(=C\C=C\c2ccccc2)C1=O)Nc1cccc(O)c1,,inactive: -28.3%
CCc1ccccc1N(CC(=O)NCc1ccco1)C(=O)c1snc(C(N)=O)c1N,"inconclusive: 28.2 µM [inhibitor, partial curve]",
COc1ccc(NS(=O)(=O)c2cc(NC(=O)/C=C/c3ccccc3OC)ccc2N2CCCCC2)cc1,"inconclusive: 22.4 µM [inhibitor, partial curve]",
Cc1cc2ccc(C)c(C)c2nc1SCC(=O)c1cccs1,"inconclusive: 39.8 µM [inhibitor, single point]",
N=C(N)n1c(N)nc2ccccc2c1=O,"inconclusive: 28.2 µM [inhibitor, partial curve]",
O=C1CCS/C(=N\N=C\c2ccc(Cl)cc2Cl)N1,"inconclusive: 39.8 µM [inhibitor, single point]",

SMILES,Potency,"activity change, negative = inhibition"
COc1ccc(C2C3=C(CC(C)(C)CC3=O)Oc3ncn(Cc4ccccc4)c(=N)c32)cc1 (stereo unspecified),,inactive: -4.01%
Cc1[nH]c2ccccc2c1CCCO,"inconclusive: 35.5 µM [inhibitor, single point]",
COc1ccc(CCN2C(=O)C3CC(C)=C(C)CC3C2=O)cc1OC (stereo unspecified),,inactive: 9.66%
COc1ccc(CNC(=O)C2CCC(CNc3nc(=S)[nH]c4ccccc34)CC2)cc1 (stereo unspecified),,inactive: -3.51%
C(#Cc1ccccc1)C[N+]1(CC#Cc2ccccc2)CCCCC1,,inactive: -5.76%
COc1ccccc1C(=O)NNC(=O)c1ccc(NC(=O)c2ccccc2)cc1,"inconclusive: 35.5 µM [inhibitor, single point]",
Oc1nc(Nc2ccccc2)sc1/C=C1\C=Nc2ccccc21,"inconclusive: 31.6 µM [inhibitor, single point]",
COCCn1c(SCC(=O)c2[nH]c(C)c(C(C)=O)c2C)nc2ccccc2c1=O,"inconclusive: 39.8 µM [inhibitor, single point]",
CCOC(=O)c1c(NC(=O)CN2C(=O)NC(C)(c3ccccc3)C2=O)sc(C)c1C (stereo unspecified),,inactive: -3.01%
COc1ccccc1CNC(=O)c1cn(C)c2ccc(S(=O)(=O)N3CCCC3)cc2c1=O,,inactive: 10.4%
CCOC1=NS(=O)(=O)c2ccccc21,,inactive: 2.56%
COc1ccc(-c2[nH]c(-c3ccc(C(=O)O)cc3)nc2-c2ccccc2)cc1,"inconclusive: 31.6 µM [inhibitor, partial curve]",
COC(=O)C1=C(C)NC(=S)NC1c1sccc1C (stereo unspecified),,inactive: 1.86%
COC(=O)c1cc(OC)c(OC)cc1NC(=O)Nc1ccc(OC)cc1,"inconclusive: 31.6 µM [inhibitor, partial curve]",
O=C(NCCc1ccccc1)C(=O)Nc1ccc([N+](=O)[O-])cc1,,inactive: 7.15%
Cc1nc2ccc(NC(=O)c3ccc(Cl)c(S(=O)(=O)N(C)c4ccccc4)c3)cc2s1,"inconclusive: 39.8 µM [inhibitor, single point]",
Cc1ccc(-c2nc3ccccc3s2)cc1S(=O)(=O)N1CCOCC1,"inconclusive: 39.8 µM [inhibitor, single point]",
COc1ccc2c(Cl)c(C(=O)N/N=C3\CCCC(=O)C3)sc2c1,active: 17.8 µM,
CCOC(=O)CNc1c(-c2ccc(O)cc2)nc2ccccn12,"inconclusive: 31.6 µM [inhibitor, partial curve]",
O=C(OCc1nnc(-c2ccccc2)o1)c1ccc2c(c1)OCO2,"inconclusive: 35.5 µM [inhibitor, single point]",
COc1ccc(NS(=O)(=O)c2cc(NC(=O)c3ccccc3F)ccc2N2CCCC2)cc1,"inconclusive: 25.1 µM [inhibitor, partial curve]",
CC(=O)N1N=C(c2cccs2)CC1c1ccco1 (stereo unspecified),"inconclusive: 25.1 µM [inhibitor, single point]",
COC(=O)CN1C(=O)N/C(=C/c2ccc(C)o2)C1=O,"inconclusive: 25.1 µM [inhibitor, single point]",
CC(=O)n1c2ccccc2c2ccccc21,,inactive: 6.98%

SMILES,Potency,"activity change, negative = inhibition"
FC(F)(F)c1cc(-c2ccco2)nc(NCc2ccccc2)n1,"inconclusive: 39.8 µM [inhibitor, single point]",
N#Cc1c(C(F)(F)F)cc(-c2ccc(Cl)cc2)[nH]c1=O,"inconclusive: 31.6 µM [inhibitor, partial curve]",
COc1cc(/C=N/Nc2cc(C)nc(NS(=O)(=O)c3ccccc3)n2)ccc1O,"inconclusive: 31.6 µM [inhibitor, single point]",
N#CCC(=O)Nc1ccccc1C(=O)O,"inconclusive: 28.2 µM [inhibitor, single point]",
COc1ccc(C(=O)Nc2ccc(N3CCCC3)cc2)cc1,,inactive: -5.57%
O=C(OCc1cc(=O)n2c(n1)sc1ccccc12)c1ccc(O)cc1,,inactive: -14.8%
N#Cc1c(SCC(N)=O)nc(-c2ccccc2)c2c1CCCC2,,inactive: 1.14%
Cc1ccc(C(=O)c2cc(C)sc2NC(=O)CN2CCN(C(=O)c3ccco3)CC2)cc1,,inactive: -12.1%
CC1CN(C(=O)/C=C/c2ccc([N+](=O)[O-])s2)CC(C)O1 (stereo unspecified),,inactive: -0.0752%
Cc1c(C(=O)N/N=C/c2ccc(O)c(Br)c2)sc(N)c1C#N,"inconclusive: 35.5 µM [inhibitor, single point]",
O=C(NCc1ccccc1)C(=O)Nc1nccs1,"inconclusive: 35.5 µM [inhibitor, single point]",
Cc1ccc(C#N)c(SCc2nnc(-c3ccc(Cl)cc3)o2)n1,"inconclusive: 35.5 µM [inhibitor, single point]",
O=C(NNC(=O)C1CCN(c2ncccn2)CC1)c1ccncc1,"inconclusive: 31.6 µM [inhibitor, partial curve]",
COc1cccc(NC(=O)NC2(C(F)(F)F)Oc3ccccc3O2)c1,,inactive: 5.09%
CC1=NOC(=O)/C1=C/c1ccc(-c2ccc(Cl)cc2)o1,"inconclusive: 28.2 µM [inhibitor, single point]",
COc1ccc2cc(C(=O)C3CCCN(C(=O)c4csnn4)C3)ccc2c1 (stereo unspecified),"inconclusive: 31.6 µM [inhibitor, partial curve]",
CCCn1c(N)c(C(c2ccc(OC)cc2)N2CCN(c3ccccc3)CC2)c(=O)[nH]c1=O (stereo unspecified),"inconclusive: 39.8 µM [inhibitor, single point]",
COc1cc(/C=C2\C(=O)N(CCC#N)N=C2C)ccc1OCC(=O)Nc1ccccc1,"inconclusive: 1.12 µM [inhibitor, full curve, poor fit]",
Cc1cc(NC(=O)/C=C/c2ccc(Br)cc2)no1,"inconclusive: 39.8 µM [inhibitor, single point]",
COc1ccc2c(c1)c1nc3n(c(=O)c1n2CC(=O)Nc1cc(C)[nH]n1)CCS3,"inconclusive: 3.55 µM [inhibitor, full curve]",
COc1ccc2cc(CO)c(Cl)nc2c1,"inconclusive: 28.2 µM [inhibitor, single point]",
CC1(C)NC(C(=O)O)Cc2c1[nH]c1ccccc21 (stereo unspecified),"inconclusive: 8.91 µM [inhibitor, single point]",
N#C/C(=C(/O)CSc1ncn[nH]1)c1nc2ccccc2[nH]1,"inconclusive: 28.2 µM [inhibitor, single point]",
